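Growth conditions: 96-well plates. Treatment: test compound, 48 hours, 5 concentrations. Analysis: linear interpolation between bracketing concentrations; unreached endpoints set to highest concentration. At the GI50, growth is halved. At the TGI there is no net growth.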 Where only a bound is given, the exact number is not on record here.

For this assay, the system named is NCI-H322M lung. Nature of the assay: DTP human tumour cell line panel, 48 h.
For `COc1cccc(CC2Cc3ccccc3CC(=O)N2)c1` (stereo not given), the TGI (commonly the concentration giving total growth inhibition) is > 100 µM.
With `C[C@]12[C@@H]3CC[C@H]1[C@@H](OC(=O)Nc1cc([N+](=O)[O-])cc([N+](=O)[O-])c1)C(=O)N2CC3`, the TGI was > 100 µM.
For the compound `C=C(C)[C@@H]1CC[C@]2(COC3CCCCO3)CC[C@]3(C)[C@H](CC[C@@H]4[C@@]5(C)C=C(C=O)C(=O)C(C)(C)[C@@H]5CC[C@]43C)[C@@H]12` (stereo not given in full), the GI50 (usually the concentration giving 50% growth inhibition) is 2.18 µM and the TGI was 5.24 µM.
`NC(=O)NC(=O)c1cccc(NC(=O)CBr)c1` showed a concentration for total growth inhibition (TGI) of 16 µM.
As to `COC(=O)C(Cc1nc2ccc(Cl)cc2[nH]c1=O)/C(=N/NC(N)=O)C(=O)Nc1ccc(Cl)cc1` (stereo not given), the TGI is > 100 µM.
Still for that read-out and setting: the result for `COc1c(O)c2c(=O)cc(OC)c3c4c(OC)cc(=O)c5c(O)c(OC)c6c(c(c1C(C(C)=O)C6C(C)O)c23)c54` (stereo not given) reads 2.03 µM.
In the case of `CCOC(=O)c1cc2c(n1Cc1ccccc1)-c1oncc1CC2`, the GI50 was 11.7 µM and the TGI was determined as 98.3 µM.
On the same counts, the results for `CN(C[C@@H]1COCCO1)S(=O)(=O)Nc1ccc2ccc3ncc(-c4cnn(C)c4)cc3c(=O)c2c1` are 4.81 µM and > 100 µM.
For the compound `CCCCC#CC#Cc1cccc(=O)o1`, the GI50 was 16.4 µM and the TGI was 44.5 µM.
Consider `Cn1c(=S)c2[nH]c(SCCN3CCCC3)nc2n(C)c1=O`, for which the TGI was > 100 µM.
On the same count and under the same terms, the result for `COc1ccc(Cc2nccc3cc(OC)c(OC)cc23)cc1OC` reads > 100 µM; that for `O=C1c2scc(-c3ccc(Cl)cc3)c2-n2cccc21`, > 100 µM.
Turning to `COc1cc2nc3cc([N+](=O)[O-])ccc3c(NCCCNCC(C)(C)O)c2cc1OC`, the GI50 was 0.255 µM and the TGI was determined as 0.833 µM.
`CCc1nc(N)nc(N)c1-c1ccc(NCCc2ccccc2)c([N+](=O)[O-])c1`: the concentration for total growth inhibition (TGI) was > 44.4 µM.
Turning to `CCCCn1sc(=O)n(Cc2ccc(CNC(=O)OCc3ccc4c(Br)cc(Br)c(O)c4n3)cc2)c1=O`, the GI50 is 2.4 µM and the TGI is > 100 µM.
For `Cn1ncnc1CCc1ccccc1`, the TGI was > 100 µM.
With `Cc1ccc(C)c(NC(=O)CCc2nc(=S)[nH][nH]2)c1`, the TGI was > 100 µM.
Regarding `O=C(c1ccccc1)c1sc2c(=O)c(C(=O)c3ccccc3)c(C(=O)c3ccccc3)sc2c(=O)c1C(=O)c1ccccc1`, the TGI is > 100 µM.
As for `O=C=NCCCCCCN1C(=O)N2C(c3ccccc3)N(CCCCCCN=C=O)C(=O)N2C1c1ccccc1` (stereo not given), the TGI was > 100 µM.
For the compound `N[C@@H]1CCCN(c2c(/C=C3\SC(=O)NC3=O)cccc2-c2ccccc2)C1`, the GI50 was 14.7 µM and the concentration for total growth inhibition (TGI) was 29.7 µM.
As to `CC#CCCN(CC#N)Cc1ccccc1`, the TGI is > 100 µM.
As to `CCC[CH2][Sn]([CH2]CCC)([O]C(=O)C1CCC(=O)N1)[O]C(=O)C1CCC(=O)N1` (stereo not given), the GI50 is 1.34 µM and the TGI was 2.62 µM.
With `CCC1CCc2nc3sc(C(=O)Nc4ccccc4C)c(N)c3cc2C1` (stereo not given), the GI50 is > 100 µM and the TGI was > 100 µM.
`CC(=O)OC1CC2C(C)(C)C(=O)C=CC2(C)C2CCC3(C)C(c4ccoc4)OC(=O)C4OC43C12C` (stereo not given): the TGI is > 100 µM.
In the case of `CCOC(=O)c1ccc(-n2c(SCC)nc3sc(C)c(C)c3c2=O)cc1`, the TGI is > 100 µM.
Consider `O=c1cc(-c2ccc(Cl)cc2)oc2cc(OCCCOc3ccc4c(=O)cc(-c5ccc(Cl)cc5)oc4c3)ccc12`, for which the total growth inhibition concentration (TGI) is > 100 µM.
For the compound `COC(=O)[C@@]12OC[C@]34C([C@@H](O)C1O)[C@@]1(C)CC(=O)C(OC(=O)/C=C(/c5ccccc5)C(F)(F)F)=C(C)C1C[C@H]3OC(=O)[C@H](O)[C@H]42` (stereo not given in full), the TGI was > 50 µM.
Consider `COc1cc([C@@H]2c3cc4c(cc3[C@@H](NC(=O)c3cccc(F)c3)C3COC(=O)[C@@H]32)OCO4)cc(OC)c1O` (stereo not given in full), for which the concentration for total growth inhibition (TGI) is > 100 µM.
For the compound `Cc1ccc(S(=O)(=O)Cc2nc(-c3ccc(C(=O)NCc4cccnc4)cc3)oc2C)cc1`, the GI50 is > 100 µM and the TGI is > 100 µM.
As for `COc1ccc(-c2c(-c3cc(OC)c4c(c3)OCO4)noc2N)cc1`, the GI50 is 0.0721 µM and the TGI was > 100 µM.
As to `C/C(Cc1ccc(Cl)cc1)=C(/c1ccc(Cl)cc1)c1ccc(OCCN(C)C)cc1`, the GI50 was 5.04 µM and the TGI stood at 9.7 µM.
As to `CC(=O)OC1CC[C@]2(C)C3CC[C@@]4(C)C(CCC4[C@H](C)CCCC(C)C)[C@@H]3CCC2(Br)C1` (stereo not given in full), the TGI is > 50 µM.
Same read-out and setting: the same measure for `CC(C)C(/C=C/c1ccc(Br)cc1)=N\NC(N)=O`: > 100 µM.
For `CC(=O)OCC1O[C@@H]([S-])C(OC(C)=O)[C@H](OC(C)=O)[C@@H]1OC(C)=O.[Au+].c1ccc(CN2[CH-]N(Cc3ccccc3)C(c3ccccc3)=C2c2ccccc2)cc1`, the GI50 is 2.77 µM and the TGI was 7.78 µM.
`CSc1ccc(/C=C/c2ccnc3ccccc23)cc1` returned a concentration for total growth inhibition (TGI) of 32.9 µM.
As to `Cc1cc(OCC(=O)N/N=C/C(Br)=C/c2ccccc2)nc(SCC(=O)N/N=C/C(Br)=C/c2ccccc2)n1`, the TGI was > 100 µM.
With `COc1cc(/C=C2/C(=O)N(C(=O)c3ccc(Cl)cc3)N=C2C)cc(OC)c1OC`, the TGI was > 100 µM.

These data come from PubChem BioAssay (NCI).
